Results published in PubChem BioAssay AID1346428 (National Center for Advancing Translational Sciences (NCATS), 2018).
“And” between values parts separate entries of the source, which are not always exact repeats. Equal values may be shown once. In all, about 48,000 compounds went through this assay and about 1,200 (2.5%) were called active. Another 2% or so got no clear call; they are omitted.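 Rule for the calls: active = activation of at least 60% and not above a set upper limit (about 1 call in 100 departs from these limits); inconclusive = activation of 40% to 60%, or above that upper limit; inactive = activation under 40%.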 The list shows a part of the results.

What follows are molecules tested against Probable G-protein coupled receptor 32 (Homo sapiens) (UniProt O75388) (assay: qHTS for Agonists of Human Resolvin D1 Receptor DRV1). Conditions: CHO-K1 GPR32 beta-arrestin PathHunter luminescence, 90 min; at 76.9 µM; active compounds read high; zero percent set by DMSO-only wells.
Sequence of UniProt O75388 (O75388 whole entry, looked up): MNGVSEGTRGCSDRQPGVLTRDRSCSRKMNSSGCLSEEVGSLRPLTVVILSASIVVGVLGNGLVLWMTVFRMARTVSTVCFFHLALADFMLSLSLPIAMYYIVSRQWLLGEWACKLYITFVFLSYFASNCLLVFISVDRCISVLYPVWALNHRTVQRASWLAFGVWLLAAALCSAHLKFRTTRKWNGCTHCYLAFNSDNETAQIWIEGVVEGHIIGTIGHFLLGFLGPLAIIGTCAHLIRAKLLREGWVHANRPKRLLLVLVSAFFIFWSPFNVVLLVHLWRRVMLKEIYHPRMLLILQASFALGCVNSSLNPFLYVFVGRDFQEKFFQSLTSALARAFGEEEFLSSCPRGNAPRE
How it was run: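 Engineered CHO-K1 line co-expressing GPR32-ProLink and EA-beta-arrestin. Compound treatment lasted 90 min at 37 °C. Luminescence was recorded after 1 h with substrate at ambient temperature, relative to DMSO basal wells.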
Note: 0% is about no effect.

activation, inactive:
COc1ccc(NC(=O)c2cc(C3CC3)nc3c2c(C)nn3-c2ccc(C)cc2)cc1OC -1.48%
Cc1c(NS(C)(=O)=O)cccc1-c1nc2ccccc2s1 20%
COc1ccc(NC(=O)c2sc3nc(-c4cc5cccc(OC)c5oc4=O)[nH]c(=O)c3c2C)cc1 1.27%
Cc1ccc(C)c(CN2C(=O)c3ccccc3S(=O)c3ccc(C(=O)NCCc4ccc(Cl)cc4)cc32)c1 (configuration not stated) -3.67%
COc1cccc(CNC(=O)NCc2noc3ccc(C)cc23)c1 -3.87%
CCOc1ccc(N(CC)S(=O)(=O)N2CCCC(C(=O)NCc3ccc(SC)cc3)C2)cc1 (configuration not stated) -19.5%
Cc1ccc(NC(=O)CN2C=NS(=O)(=O)c3ccccc32)c(C)c1 1.97%
COc1ccc(NC(=O)CN2C(=O)COc3ccc(S(=O)(=O)N4CCOCC4)cc32)cc1Cl -21%
COc1ccc(NC(=O)Nc2nnc(N3CCCCCC3)s2)c(OC)c1 -6.85%
COc1ccc(N2CCN(C(=O)CCS(=O)(=O)c3cc(Br)cc4c3N(C(=O)C3CC3)CC4)CC2)cc1 -1.57%
Cc1ccc(N2CC(c3nnc(NC(=O)c4ccco4)s3)CC2=O)cc1C (configuration not stated) -13.6%
O=C(NC1CCCC1)c1ccc(CSc2nc3ccncc3n2Cc2ccc(F)cc2)cc1 -3.42%
COc1ccc(-n2cc(C(=O)NC(C)c3ccccc3)c3ccccc3c2=O)cc1 (configuration not stated) -19.9%
CCCCC[C@H](O)C=C[C@H]1[C@H](O)CC(=O)[C@H]1CC=CCCCC(=O)O 2.74%
Cc1ccc(NC(=O)Cn2cc(S(=O)(=O)N3CCCC3)c(S(=O)(=O)N3CCCC3)c2)cc1C -17.5%
CCN1CCN(c2cc(C)c3cc(NC(=O)/C=C/c4cccc(Cl)c4)ccc3n2)CC1 21.7%
CCOc1ccc(NC(=O)c2ccc(-c3cccc(Cl)c3C)o2)cc1 -4.77%
CCOC(=O)c1cnc2c(ccc3ccccc32)c1Nc1ccc(OC)c(OC)c1 -62.4%
O=c1c2cc3c(nc2ncn1Cc1ccccc1F)CCCC3 -6.05%
CCOc1ccc(Cn2c(CNS(=O)(=O)c3ccc([N+](=O)[O-])cc3)nc3cccnc32)cc1 -6.39%
COCCn1ccc2c(OCC(=O)NCc3ccc(F)cc3)cccc2c1=O 13.2%
COc1ccc(C(=O)NCCSc2c(C)[nH]c3ccccc23)cc1 -4.47%
Cc1ccc(NC(=O)Nc2nnc(SCC(=O)N3CCC(C)CC3)s2)cc1 44.9%
COc1ccc(NC(=O)CCCSc2nc(-c3ccco3)cc(C(F)(F)F)n2)cc1 0.203%
Cc1cc2c(cc1S(=O)(=O)NCc1ccccc1)OCC(=O)N2 7.86%
Cc1ccc(NC(=O)c2ccc(COc3ccccc3Cl)o2)cc1 -16.8%
COc1ccccc1C(=O)Nc1c(C(=O)N2CCN(c3ccccc3F)CC2)oc2ccccc12 -16.2%
CN(C)c1cccc(C(=O)Nc2nc3ccc(S(=O)(=O)NC(C)(C)C)cc3s2)c1 11.5%
Cc1ccc(CNC(=O)c2ccc3c(c2)NC(=O)C(CS(=O)(=O)Cc2ccc(F)cc2)N3)cc1 (configuration not stated) -0.495%
O=C(c1ccccc1)c1ccc2nc(N3CCN(c4ccccc4)CC3)c3nncn3c2c1 -10.3%
Cc1nc2ccc(S(=O)(=O)CCC(=O)Nc3ccc(C(C)C)cc3)cc2s1 -16.1%
CC(C)(C)c1ccc(C(=O)Nc2ccc(C(=O)OCc3cc(=O)n4ccsc4n3)cc2)cc1 17.5%
CCC1CCCCN1CCCNC(=O)c1cn(CC)c2ccc(S(=O)(=O)N(C)C3CCCCC3)cc2c1=O (configuration not stated) -4.33%
CC1=C(/C=C/C(C)=C/C=C/C(C)=C/C(=O)O)C(C)(C)CCC1 9.01% and -7.02%
Cc1cc(C)cc(Nc2nc3ccccc3nc2-n2nc(C)cc2C)c1 -24.1%
CCOC(=O)N1CCc2c(sc3c2c(=O)n(Cc2ccccc2)c(=O)n3CC(=O)Nc2cccc(C)c2)C1 -12.8%
COC(=O)c1sc(-c2ccccc2)cc1NC(=O)Nc1ccccc1Cl -27.2%
O=C(/C=C/c1ccc(O)c(O)c1)O[C@@H]1C[C@@](OC(=O)/C=C/c2ccc(O)c(O)c2)(C(=O)O)C[C@@H](O)[C@@H]1O 16.4%
Cc1ccc(CNC(=O)C2(c3cccs3)CCOCC2)cc1 -24.7%
COc1ccc(-c2cn3c(n2)sc2cc(C(=O)Nc4c(C)cccc4C)ccc23)cc1 7.42%
CCCCC(=O)Nc1cc(-c2nc3cccnc3s2)ccc1C -8.22%
CCc1ccc(NC(=O)c2cc3c(COC(C)=O)cnc(C)c3oc2=O)cc1 -4.36%
CCOc1ccc(NC(=O)CSc2ncnc3c2sc2ccccc23)cc1 -3.97%
CN(C)S(=O)(=O)c1ccc(C(=O)Nc2c(C(=O)Nc3ccc(F)cc3)oc3ccccc23)cc1 -2.61%
COc1ccc(C(=O)n2nc(-c3ccc(Cl)cc3)nc2NCc2ccco2)cc1 1.74%
O=C(c1ccc2c(c1)N(Cc1ccc(Cl)cc1)C(=O)c1ccccc1S2(=O)=O)N1CCC(Cc2ccccc2)CC1 9.5%
Cc1ccc(S(=O)(=O)Nc2ccc3[nH]c(=O)sc3c2)cc1C 2.94%
O=C(Nc1cc2c(cc1C(=O)c1ccc(Br)cc1)OCCO2)c1ccc(Cl)cc1 2.97%
CCOc1ccc(NC(=O)CSC2=Nc3ccccc3C3=NC(CC(=O)NCc4ccccc4OC)C(=O)N23)cc1 (configuration not stated) -27.4%
O=C(c1ccc2c(c1)N(Cc1ccc(F)cc1)C(=O)c1ccccc1S2(=O)=O)N1CCCCCC1 -1.35%
Cc1ccc(N2CC(NC(=O)c3ccco3)CC2=O)cc1 (configuration not stated) -1.95%
COc1cccc(-n2c(=O)c3cc(OC)c(OC)cc3n(CC(=O)Nc3ccccc3)c2=O)c1 2.95%
Cc1ccc(C)c(S(=O)(=O)c2cn(C)c3cc(F)c(F)cc3c2=O)c1 -8.46%
CCc1cccc(NC(=O)c2c(N3CCCC3=O)c3cc(C)ccc3n2C)c1 42.3%
CC(=O)Nc1ccccc1-c1nc2ccccc2n(CC(=O)Nc2ccc(C)c(Cl)c2)c1=O -9.79%
COc1ccc(CCn2c(=O)c3ccccc3n(CC(=O)Nc3cccc(C)c3)c2=O)cc1OC -8.62%
CNC(=O)CN(CCN(CCN(CC(=O)[O-])CC(=O)NC)CC(=O)[O-])CC(=O)[O-].O.[Gd+3] 11.5%
Cc1ccc(S(=O)Cc2ccc(C(=O)NC3CCCCCC3)o2)cc1 (configuration not stated) -1.61%
Cc1ccc(NC(=O)CSc2nc3c(c(=O)[nH]2)CCC3)cc1Cl 39.3%
Cc1ccccc1CN1C(=O)c2ccccc2S(=O)c2ccc(C(=O)NCc3ccco3)cc21 (configuration not stated) -20.7%
Cc1[nH]c2ccc(C(=O)Nc3ccc(F)cc3)cc2c1C 3.75%
CCN(C(=O)CCS(=O)(=O)c1ccc2c(c1)oc(=O)n2C)c1ccc(OC)cc1 5.89%
O=S(=O)(c1ccc(Br)cc1)c1nc(-c2cccs2)oc1SCc1ccc(F)cc1 -19%
CCn1c(COc2cccc(C)c2)nc2ccccc21 -9.03%
CCS(=O)(=O)N1CCC2(CC1)OC(=O)C(C)=C2C(=O)NCc1cccc(Cl)c1 -45.8%
Cc1ccc(C)c(N2CCN(C(=O)C3CCN(C(=O)c4cc5sccc5n4C)CC3)CC2)c1 15.5%
Cc1ccccc1NS(=O)(=O)c1ccc2c(c1)NC(=O)CCS2 42.5%
COc1cc2c(cc1NC(=O)COc1ccc(Br)cc1C)oc1ccccc12 -19.7%
CC(C)CCNC(=O)CCC(=O)N1Cc2ccccc2Oc2ncccc21 -3.12%
CCn1c(SCC(=O)Nc2ccccc2)nc2c([nH]c3ccccc32)c1=O 25.9%
CCNC(=O)C1CCN(c2nc3ccccc3nc2C(F)(F)F)CC1 -9.46%
O=C(CSc1nc2c([nH]c3ccccc32)c(=O)n1-c1ccccc1)NCc1ccc(F)cc1 -69.4%
CCc1ccc2occ(CC(=O)Nc3nnc(C)s3)c2c1 -9.28%
CCc1ccccc1NC(=O)CC(C)S(=O)(=O)c1ccc2c(c1)NC(=O)CO2 (configuration not stated) 27.1%
CC(=O)c1nn(-c2ccc(OC(F)(F)F)cc2)nc1Nc1ccc(Cl)cc1 3.55%
CCOc1ccc(NC(=O)Cn2cc(S(=O)(=O)c3ccc(C)cc3)c(=O)c3cc(F)ccc32)cc1 -15.3%
O=C(CN1C(=O)C2(SCC(=O)N2c2ccccc2)c2ccccc21)Nc1ccccc1C(F)(F)F (configuration not stated) -12.4%
COc1ccc(S(=O)(=O)N2CCC(C(=O)NC(C)c3ccccc3)CC2)cc1 (configuration not stated) 23.9%
COc1ccc(C(=O)c2cnc3ccc(C)cc3c2S(=O)(=O)c2ccccc2)cc1 -36.8%
Cc1ccc(CN2C(=O)C(O)(CC(=O)c3ccc(C)cc3)c3ccccc32)cc1 (configuration not stated) -71.8%
O=C(Nc1ccc(Br)cc1)c1cc2nc(-c3ccccc3)cc(-c3ccccc3)n2n1 10.3%
CCOc1ccc(-c2nnc(SCC(=O)NCc3ccc(Cl)cc3)o2)cc1 -5.25%
